Whole data set: some 33,000 sequences, median “E-score (-0.5 to 0.5)” near -0.035, cut for the highest 2% near 0.35. The list shows a part of the results.
Biological target: T1, Pdr3 (UniProt P33200)
T1 sequence: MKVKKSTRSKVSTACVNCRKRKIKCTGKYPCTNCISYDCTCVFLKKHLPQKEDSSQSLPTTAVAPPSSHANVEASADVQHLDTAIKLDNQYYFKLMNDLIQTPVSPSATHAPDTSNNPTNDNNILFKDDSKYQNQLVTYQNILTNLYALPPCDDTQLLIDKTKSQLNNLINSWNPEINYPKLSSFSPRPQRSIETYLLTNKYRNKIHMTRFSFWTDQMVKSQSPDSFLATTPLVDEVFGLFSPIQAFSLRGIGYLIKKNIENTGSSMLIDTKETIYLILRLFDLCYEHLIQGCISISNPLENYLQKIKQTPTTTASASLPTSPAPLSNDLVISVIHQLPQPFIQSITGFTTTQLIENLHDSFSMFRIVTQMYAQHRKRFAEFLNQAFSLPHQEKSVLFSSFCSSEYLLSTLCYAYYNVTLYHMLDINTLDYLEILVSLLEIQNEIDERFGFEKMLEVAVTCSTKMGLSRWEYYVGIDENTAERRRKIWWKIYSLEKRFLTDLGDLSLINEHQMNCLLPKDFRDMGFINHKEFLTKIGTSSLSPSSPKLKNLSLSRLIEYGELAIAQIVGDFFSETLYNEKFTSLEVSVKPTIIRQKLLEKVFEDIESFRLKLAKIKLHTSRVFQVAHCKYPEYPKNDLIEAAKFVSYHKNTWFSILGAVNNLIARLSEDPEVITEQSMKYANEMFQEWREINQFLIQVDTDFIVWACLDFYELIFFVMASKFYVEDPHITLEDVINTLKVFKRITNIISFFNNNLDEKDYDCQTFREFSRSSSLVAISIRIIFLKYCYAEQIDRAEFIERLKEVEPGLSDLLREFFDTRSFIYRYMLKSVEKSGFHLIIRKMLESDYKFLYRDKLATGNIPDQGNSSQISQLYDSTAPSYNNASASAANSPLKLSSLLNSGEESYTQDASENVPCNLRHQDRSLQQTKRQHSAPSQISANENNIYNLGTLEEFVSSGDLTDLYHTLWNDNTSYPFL
Experiment: PBM E-score (8-mer binding enrichment) (E-score (-0.5 to 0.5)); higher = stronger / more preferred TF binding; most listed sequences are background and not binding sites
Conditions: protein concentration: 200 nM; construct: GST-full length
Method in brief: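 Using PURExpress in vitro transcription/translation, GST-tagged yeast transcription factors were made in full-length or DNA-binding-domain form. These were applied at about 100-200 nM to double-stranded universal all-10-mer Agilent arrays, and bound protein was detected with fluorescent anti-GST. Scans were normalised with masliner before the Universal PBM Analysis Suite assigned E-scores to ungapped eight-base words pooled with their reverse complements.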

Row | Sequence | PBM E-score
1 | AACCAATC | 0.152
2 | AAGCGAGC | 0.0993
3 | TGGACCCA | -0.168
4 | GGACACCC | 0.117
5 | GCAAGCGC | 0.051
6 | AAATGAGT | 0.0718
7 | ACGAAAGT | -0.0393
8 | AACTTCAA | -0.0145
9 | ATAAAACC | 0.036
10 | CTACGCGA | -0.139
11 | ATAAGAGA | 0.082
12 | GTGAAATA | -0.0968
13 | ATACATAG | -0.126
14 | CATGACAG | -0.114
15 | AGGAGTGG | -0.0796
16 | CACTAGGC | -0.0109
17 | CACCAAAA | -0.054
18 | AACACTGC | 0.145
19 | ACTACGGA | 0.362
20 | ATTCAAGC | 0.0293
21 | TCTGGTCA | -0.172
22 | CAATCATA | 0.0491

Row | Sequence | PBM E-score
23 | TAAGGGCA | -0.0407
24 | ATCGGTAG | -0.0753
25 | ACCAGGGC | -0.0386
26 | GATAAAAC | 0.201
27 | TACCCGGA | 0.381
28 | CCGAGTCA | 0.166
29 | CCAATGGC | -0.0721
30 | AGTCAGCC | -0.063
31 | AATACCAT | 0.0209
32 | GGAAGACA | 0.0457
33 | TAGTCATA | -0.247
34 | AAAAGGTA | -0.0334
35 | ACTCCGAA | 0.238
36 | CATGTAAA | -0.143
37 | ACTATTAG | -0.0165
38 | ATAAAGAA | -0.047
39 | CTACCCCA | -0.0646
40 | CTGATCTA | 0.0483
41 | AGCAGCGG | 0.0503
42 | ACCGCTCT | -0.0701
43 | CATGAATC | -0.0484
44 | AATCGTAA | -0.0201

Row | Sequence | PBM E-score
45 | CCAGCATC | -0.0058
46 | GAGACCGC | -0.0255
47 | CGCTTGTC | 0.198
48 | GTGCTGTA | -0.122
49 | GAGGCTCC | 0.047
50 | TAAAGTTA | -0.0144
51 | CCGCGACC | 0.215
52 | AAATTGCC | 0.159
53 | ATGGCTCC | 0.0449
54 | CCCGGTCG | 0.196
55 | AGCTAGAA | -0.195
56 | AGCTGAGA | -0.105
57 | CAGCAACG | 0.201
58 | GGACGACC | -0.0865
59 | AAACGTTC | -0.101
60 | AATCCTAG | -0.108
61 | GCCTTGAA | -0.311
62 | GCGGTTTA | 0.0976
63 | ATGCGATA | -0.121
64 | ATGCGAGG | 0.0336
65 | CCCGCAGA | 0.235
66 | AAAACCCC | 0.103

Row | Sequence | PBM E-score
67 | TCTACACA | -0.161
68 | TCCCCCCA | -0.281
69 | CAAATGAA | 0.00025
70 | AGCCACGC | -0.112
71 | AAGTTCCA | 0.00015
72 | ATAGTTTG | 0.0183
73 | CAAGGGCC | -0.148
74 | AGTGCTAG | -0.0699
75 | GTGAACAA | 0.0506
76 | AATCTGTC | 0.0502
77 | ACGATACA | -0.177
78 | ACTACCCC | -0.129
79 | AAACAGGG | -0.108
80 | ACCCCGAA | 0.283
81 | AAGTCCTA | -0.0927
82 | ACGCTTGC | -0.0328
83 | AAAGACGC | 0.00677
84 | AACTAGCT | -0.109
85 | ATGCGTTC | 0.086
86 | ATCGGAGA | 0.25
